The record followed here is the supplement of paper PMC10037445.

Assay [1] has as its system RAW-Dual. Briefly: NF-kB SEAP reporter activity, fold change vs agonist alone; higher = enhanced NF-kB activity. The procedure, abridged:
(§1)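 Cytotoxic wells were those whose IncuCyte confluency was below 70% of agonist controls in both mask sets. The cells were RAW-Dual macrophages at 50,000 cells/well in DMEM on 384-well plates, dosed with 50 nL of library stock by pin tool, stimulated with a PRR agonist 1 h later, and kept at 37 °C, 5% CO2 for 20 hours. IRF and NF-κB reporter activity, as fold change over agonist-alone wells, came from supernatant read by QuantiLuc luminescence and QuantiBlue absorbance, respectively.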

Assay [2] deals with RAW-Dual. Briefly: NF-kB SEAP reporter activity, fold change vs agonist alone; cytotoxicity flag (confluency mask): not cytotoxic; higher = enhanced NF-kB activity. The procedure, abridged:
as §1

Assay [3] deals with RAW-Dual. Briefly: NF-kB SEAP reporter activity, fold change vs agonist alone; cytotoxicity flag (confluency mask): cytotoxic (confluency <70% of control); higher = enhanced NF-kB activity. A digest of the protocol: as §1
[4] abbreviates: library stock concentration (final ~1000-fold dilution): 10 mM, cytotoxicity flag (confluency mask): not cytotoxic, agonist: Imiquimod (TLR7) […].
The mark [5] stands for this setting: library stock concentration (final ~1000-fold dilution): 10 mM, cytotoxicity flag (confluency mask): not cytotoxic, agonist: MPLA (TLR4) […].
Where [6] appears, read: agonist: ODN 1826 (TLR9) 0.5 ug/mL.
The mark [7] stands for this setting: agonist: Pam2CSK4 (TLR2/6) 0.1 ug/mL.
[8] abbreviates: agonist: Pam3CSK4 (TLR2/1) 0.1 ug/mL.
The mark [9] stands for this setting: library stock concentration (final ~1000-fold dilution): 10 mM, cytotoxicity flag (confluency mask): cytotoxic (confluency <70% of control), agonist: Imiquimod (TLR7) […].
[10] abbreviates: library stock concentration (final ~1000-fold dilution): 10 mM, cytotoxicity flag (confluency mask): cytotoxic (confluency <70% of control), agonist: MPLA (TLR4) […].

SMILES strings stand for the structures. Over roughly 2,900 compounds, “NF-kB SEAP reporter activity, fold change vs agonist alone” has its median near 0.99; the highest 2% begin near 2.6. Some of the results follow.

Turning to `CCCOc1ccc(C(=O)OCCN(CC)CC)cc1N.Cl`, the “NF-kB SEAP reporter activity” value came to 0.739 in the assay with RAW-Dual [1] (setting [4]) and 0.833 with RAW-Dual [1] (setting [5]).
Take `CCCOc1ccc(C(=O)OCCN(CC)CC)cc1N.Cl` (library stock concentration (final ~1000-fold dilution): 10 mM): the “NF-kB SEAP reporter activity” value in the assay on RAW-Dual [2] (agonist: LPS (TLR4) 0.1 ug/mL) was 1.12; with RAW-Dual [2] (setting [6]), 0.834; with RAW-Dual [2] (setting [7]), 0.987; in the assay with RAW-Dual [2] (setting [8]) it was 1.1.
The matching figures for `Cc1c(-c2ccccc2)oc2c(C(=O)OCCN3CCCCC3)cccc2c1=O.Cl` (library stock concentration (final ~1000-fold dilution): 10 mM water): 1.36, 1.15, 1.13 and 1.13.
For the compound `Cc1c(-c2ccccc2)oc2c(C(=O)OCCN3CCCCC3)cccc2c1=O.Cl`, the “NF-kB SEAP reporter activity” value in the assay on RAW-Dual [1] (library stock concentration (final ~1000-fold dilution): 10 mM water, cytotoxicity flag (confluency mask): not cytotoxic, agonist: Imiquimod (TLR7) […]) is 0.854; in the assay on RAW-Dual [1] (library stock concentration (final ~1000-fold dilution): 10 mM water, cytotoxicity flag (confluency mask): not cytotoxic, agonist: MPLA (TLR4) […]) it was 0.985.
For `CCCCCCCCCCCCCCCCn1cc[n+](Cc2ccccc2)c1C`, the results for the “NF-kB SEAP reporter activity” value in the assay with RAW-Dual [1] (setting [4]) and in the assay on RAW-Dual [1] (setting [5]) were 1.42 and 0.947, respectively.
Take `CCCCCCCCCCCCCCCCn1cc[n+](Cc2ccccc2)c1C` (library stock concentration (final ~1000-fold dilution): 10 mM): the “NF-kB SEAP reporter activity” value in the assay with RAW-Dual [2] (agonist: LPS (TLR4) 0.1 ug/mL) stood at 0.488; in the assay with RAW-Dual [2] (setting [6]), 1.36; in the assay with RAW-Dual [2] (setting [7]) it was 0.273; in the assay with RAW-Dual [2] (setting [8]) it was 0.294.
For the compound `Cc1cnc(-c2ccccc2C(C)C)nc1NCc1ccc(-n2ccnn2)cc1`, the “NF-kB SEAP reporter activity” value with RAW-Dual [1] (setting [4]) came out at 1.01; with RAW-Dual [1] (setting [5]), 1.26.
Consider `Cc1cnc(-c2ccccc2C(C)C)nc1NCc1ccc(-n2ccnn2)cc1` (library stock concentration (final ~1000-fold dilution): 10 mM), for which the “NF-kB SEAP reporter activity” value amounted to 1.5 in the assay with RAW-Dual [2] (agonist: LPS (TLR4) 0.1 ug/mL), 0.943 in the assay with RAW-Dual [2] (setting [6]), 0.73 in the assay on RAW-Dual [2] (setting [7]) and 1.18 with RAW-Dual [2] (setting [8]).
For `O=C(CCNNC(=O)c1ccncc1)NCc1ccccc1` (library stock concentration (final ~1000-fold dilution): 10 mM), in that order: 0.997, 1.03, 0.962 and 0.955.
Regarding `O=C(CCNNC(=O)c1ccncc1)NCc1ccccc1`, the figures for the “NF-kB SEAP reporter activity” value in the assay with RAW-Dual [1] (setting [4]) and in the assay with RAW-Dual [1] (setting [5]) were 0.939 and 1, respectively.
As for `Nc1ccc(-c2ccc3ncc4ccc(=O)n(-c5cccc(C(F)(F)F)c5)c4c3c2)cn1`, the figures for the “NF-kB SEAP reporter activity” value in the assay on RAW-Dual [1] (setting [9]) and with RAW-Dual [1] (setting [10]) were 2.12 and 2.7, respectively.
For `Nc1ccc(-c2ccc3ncc4ccc(=O)n(-c5cccc(C(F)(F)F)c5)c4c3c2)cn1` (library stock concentration (final ~1000-fold dilution): 10 mM), the “NF-kB SEAP reporter activity” value with RAW-Dual [3] (agonist: LPS (TLR4) 0.1 ug/mL) came to 5.68; in the assay on RAW-Dual [3] (setting [6]), 2.16; in the assay on RAW-Dual [3] (setting [7]) it was 1.77; in the assay with RAW-Dual [3] (setting [8]), 3.14.
As for `COC(=O)C(CCSC)NC(=O)c1ccc(NCC(N)CS)cc1-c1ccccc1.Cl` (centres undefined), the “NF-kB SEAP reporter activity” value worked out at 1.13 with RAW-Dual [1] (setting [4]) and 1.22 in the assay on RAW-Dual [1] (setting [5]).
As for `COC(=O)C(CCSC)NC(=O)c1ccc(NCC(N)CS)cc1-c1ccccc1.Cl` (centres undefined) (library stock concentration (final ~1000-fold dilution): 10 mM), the “NF-kB SEAP reporter activity” value in the assay with RAW-Dual [2] (agonist: LPS (TLR4) 0.1 ug/mL) was 1.38; in the assay with RAW-Dual [2] (setting [6]), 1.56; in the assay with RAW-Dual [2] (setting [7]) it was 1.16; in the assay with RAW-Dual [2] (setting [8]), 0.929.
On to `COc1cc2nc(N(C)CCCNC(=O)C3CCCO3)nc(N)c2cc1OC.Cl` (centres undefined), for which the “NF-kB SEAP reporter activity” value in the assay on RAW-Dual [1] (setting [4]) was 1.08; in the assay on RAW-Dual [1] (setting [5]), 0.909.
Turning to `COc1cc2nc(N(C)CCCNC(=O)C3CCCO3)nc(N)c2cc1OC.Cl` (centres undefined) (library stock concentration (final ~1000-fold dilution): 10 mM), the “NF-kB SEAP reporter activity” value is 1.21 with RAW-Dual [2] (agonist: LPS (TLR4) 0.1 ug/mL), 0.916 with RAW-Dual [2] (setting [6]), 0.953 in the assay on RAW-Dual [2] (setting [7]) and 1.09 in the assay on RAW-Dual [2] (setting [8]).
For `COc1cc2nc(N3CCCC3)nc(NCCCCCN3CCCC3)c2cc1OC` (library stock concentration (final ~1000-fold dilution): 10 mM), the “NF-kB SEAP reporter activity” value with RAW-Dual [3] (agonist: LPS (TLR4) 0.1 ug/mL) is 0.465; with RAW-Dual [3] (setting [6]), 0.186; in the assay with RAW-Dual [3] (setting [7]), 0.411; with RAW-Dual [3] (setting [8]) it was 0.476.
Take `COc1cc2nc(N3CCCC3)nc(NCCCCCN3CCCC3)c2cc1OC`: the “NF-kB SEAP reporter activity” value in the assay on RAW-Dual [1] (setting [9]) turned out to be 0.736; with RAW-Dual [1] (setting [10]), 0.486.
